Assay results as given in PubChem BioAssay AID2147 (National Center for Advancing Translational Sciences (NCATS), 2009).
The campaign covered roughly 230,000 compounds. About 3,600 (1.6%) were called active. The shares of active, inactive and inconclusive entries below differ from those in the screen. The call rests on the fitted dose curve; in most records, active means well fitted inhibition curve with a large enough effect (not every such curve was filed as active); inconclusive means small, poorly fitted or top-dose-only effect, or another doubt; inactive means no such curve, though single readings can be large or run the other way. Where the call is inconclusive, the potency comes from a doubtful curve fit.

Each molecule was assayed against Lysine-specific demethylase 4E (Homo sapiens) (UniProt B2RXH2) (assay: qHTS Assay for Inhibitors of Human Jumonji Domain Containing 2E (JMJD2E)). Conditions: JMJD2E catalytic domain, FDH-coupled NADH fluorescence (FDH is formaldehyde dehydrogenase); series mostly up to 57.1 µM; activity change, negative = inhibition: at the top concentration.
Further: nearly all actives have a fitted effect of over 50% in size.
Potency means the concentration at half of the fitted maximal effect; tags describe the fitted curve by direction and shape.
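Wherever activity change, negative = inhibition is given: 0% = wells with enzyme and -100% = buffer wells without enzyme.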

UniProt B2RXH2, sequence (B2RXH2 whole entry, looked up, the tested form may be a part): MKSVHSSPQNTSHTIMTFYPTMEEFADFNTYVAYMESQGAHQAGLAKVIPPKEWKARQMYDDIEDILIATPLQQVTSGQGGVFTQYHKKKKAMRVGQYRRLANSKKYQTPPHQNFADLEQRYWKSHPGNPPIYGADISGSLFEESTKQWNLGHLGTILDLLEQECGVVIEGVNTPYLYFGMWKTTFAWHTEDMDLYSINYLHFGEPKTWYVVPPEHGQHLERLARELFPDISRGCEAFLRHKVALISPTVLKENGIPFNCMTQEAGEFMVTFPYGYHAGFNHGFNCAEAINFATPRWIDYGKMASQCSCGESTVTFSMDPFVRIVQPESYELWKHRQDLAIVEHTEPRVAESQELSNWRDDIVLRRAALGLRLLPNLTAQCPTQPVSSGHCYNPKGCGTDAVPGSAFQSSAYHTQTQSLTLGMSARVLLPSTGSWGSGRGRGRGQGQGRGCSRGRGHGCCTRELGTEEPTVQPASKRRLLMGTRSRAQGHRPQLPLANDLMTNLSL

| SMILES | activity change, negative = inhibition | Potency |
| --- | --- | --- |
| N#C/C(=C/c1ccc(C(=O)O)cc1)C(=O)Nc1ccccc1 | inactive: -18.4% | – |
| COc1ccc(-c2nc3c(Br)c(N)c(Br)cc3o2)cc1 | – | inconclusive: 25.1 µM [inhibitor, single point] |
| O=S(=O)(c1ccc2c(c1)OCCO2)N1CCN(Cc2ccc3c(c2)OCO3)CC1 | – | inconclusive: 39.8 µM [inhibitor, single point] |
| O=C(CCC(=O)N1CCN(c2ccc(O)cc2)CC1)c1cccs1 | – | inconclusive: 39.8 µM [inhibitor, single point] |
| COC(=O)C1(C)Nc2ccccc2C(=O)N1c1ccccc1C (stereo unspecified) | – | inconclusive: 35.5 µM [inhibitor, single point] |
| CCOC(=O)CSc1nc(N)c(C#N)c(-c2cccs2)c1C#N | inactive: -14.7% | – |
| Cc1cc(NS(=O)(=O)c2ccc(NC(=S)NC(=O)c3ccncc3)cc2)no1 | – | inconclusive: 39.8 µM [inhibitor, single point] |
| COCCCNC(=O)c1ccc(N(C)S(C)(=O)=O)cc1 | inactive: 6.52% | – |
| S=c1[nH]nc(-c2ccc(Br)cc2)n1Cc1ccccc1 | – | inconclusive: 39.8 µM [inhibitor, single point] |
| O=c1oc2ccccc2nc1/C=C(O)/C=C\c1ccccc1 | – | active: 20 µM |
| COCCNC(=O)C(C)N1c2cccc3cccc(c23)S1(=O)=O (stereo unspecified) | – | inconclusive: 28.2 µM [inhibitor, single point] |
| CC1=CC=CC2=NC(=O)CC(C)(C(=O)O)N12 (stereo unspecified) | – | inconclusive: 31.6 µM [inhibitor, partial curve] |
| CCn1nnnc1SCC(=O)c1cc(OC)ccc1OC | inactive: 0.996% | – |
| O=C1C(Cl)=C(NCCc2ccccc2)C(=O)N1CCc1ccccc1 | – | inconclusive: 39.8 µM [inhibitor, single point] |
| O=C(CCCc1nc2ccccc2s1)Nc1nccs1 | inactive: 1.58% | – |
| Cc1ccc(CSc2ccc(-c3cccs3)nn2)cc1 | – | inconclusive: 1.12 µM [inhibitor, single point] |
| CN1C2CCC1CC(NC(=O)CSCc1ccc(Cl)cc1Cl)C2 (stereo unspecified) | inactive: -2.17% | – |
| COc1ccc2c(c1)c(CC(=O)O)c(C)n2Cc1ccc(Cl)cc1 | inactive: 5.24% | – |
| COC(=O)c1ccc(C(=O)OC)c(NC(=S)N2CCOCC2)c1 | – | inconclusive: 25.1 µM [inhibitor, partial curve] |
| COc1ccc(OC)c(/C=C/C(=O)OCC(=O)c2c(N)n(C)c(=O)n(C)c2=O)c1 | – | inconclusive: 7.08 µM [inhibitor, partial curve] |
| COCCN1CCc2c(C)nc3c(-c4ccc(OC)c(OC)c4)cnn3c21 | – | inconclusive: 39.8 µM [inhibitor, single point] |
| CCCCNC(=O)CCNS(=O)(=O)c1ccc(C)cc1 | inactive: 9.32% | – |
| CN(C)/C=N/c1nc2nccc(-c3ccc(Cl)cc3)n2n1 | – | inconclusive: 31.6 µM [inhibitor, partial curve] |

| SMILES | activity change, negative = inhibition | Potency |
| --- | --- | --- |
| O=C(/C=C/c1ccccc1)N1CCC(N2CCC(C(=O)N3CCOCC3)CC2)CC1 | inactive: 1.67% | – |
| CCOc1ccc2ncc(S(=O)(=O)c3ccc(C)cc3)c(N3CCC4(CC3)OCCO4)c2c1 | – | inconclusive: 39.8 µM [inhibitor, single point] |
| COc1ccccc1/C=C/C=N/NC(=O)c1ccc(=O)n(C)c1 | – | inconclusive: 31.6 µM [inhibitor, partial curve] |
| COc1ccc(-c2nnc3ccc(SCC(=O)Nc4cc(C)on4)nn23)cc1OC | – | inconclusive: 35.5 µM [inhibitor, single point] |
| CCCn1cnc2cc(NCc3ccccn3)ccc21 | – | inconclusive: 39.8 µM [inhibitor, single point] |
| CCn1nc(C)c(NS(=O)(=O)c2ccccc2)c1C | inactive: -0.0007% | – |
| C=CCNc1nc2ccccc2nc1NS(=O)(=O)c1cccs1 | – | inconclusive: 28.2 µM [inhibitor, partial curve] |
| CCCCCC(=O)NC(=S)Nc1cccc(C(C)=O)c1 | inactive: 0.197% | – |
| Cc1ccc(C(=O)/C=C/Nc2ccccc2C(N)=O)cc1 | – | inconclusive: 35.5 µM [inhibitor, partial curve] |
| O=C(O)c1ccc(-n2cc(-c3cc4ccccc4oc3=O)[nH]c2=S)cc1 | – | inconclusive: 14.1 µM [inhibitor, partial curve] |
| COc1ccc2[nH]c(=O)c(CN(CCCN(C)C)C(=O)Nc3ccccc3)cc2c1 | – | inconclusive: 31.6 µM [inhibitor, single point] |
| O=C(Nc1cc(S(=O)(=O)N2CCOCC2)ccc1N1CCOCC1)c1cccc(S(=O)(=O)N2CCCCC2)c1 | – | inconclusive: 35.5 µM [inhibitor, single point] |
| Cc1ccc(C)c(/C=C(\C(=O)O)c2ccc(S(=O)(=O)N3CCCCC3)s2)c1 | inactive: -29.4% | – |
| Cc1cc(N)ccc1N1CCCC1 | inactive: -28.4% | – |
| CCOc1ccc(-n2nnnc2-c2nc3ccccc3s2)cc1 | – | inconclusive: 22.4 µM [inhibitor, partial curve] |
| CCOC(=O)c1cnc2c(C)cccc2c1NCCc1ccc(OC)c(OC)c1 | – | inconclusive: 39.8 µM [inhibitor, single point] |
| CCNCc1cc2cc(C)ccc2[nH]c1=O | – | inconclusive: 31.6 µM [inhibitor, partial curve] |
| CCn1c(=NC(=O)CN2C(=O)CCC2=O)sc2c(OC)ccc(OC)c21 | – | inconclusive: 39.8 µM [inhibitor, single point] |
| O=C(O)c1cc(Cl)c2c(c1)[C@@H]1C=CC[C@@H]1[C@H](c1ccc(S(=O)(=O)N3CCOCC3)cc1)N2 | inactive: -7.41% | – |
| FC(F)(F)c1cc(-c2ccco2)nc(NCCc2ccccc2)n1 | – | inconclusive: 31.6 µM [inhibitor, partial curve] |
| Nc1c(S(=O)(=O)c2cccs2)c2nc3ccccc3nc2n1CC1CCCO1 (stereo unspecified) | – | inconclusive: 31.6 µM [inhibitor, partial curve] |
| O=C(Cn1c2c(c(-c3ccccc3Cl)cc1=O)CCC2)NCCCN1CCOCC1 | – | inconclusive: 39.8 µM [inhibitor, single point] |
| CCc1c(C)nc2c(OC)cccc2c1Cl | – | inconclusive: 39.8 µM [inhibitor, single point] |
